# Test results: PubChem BioAssay AID493005 (National Center for Advancing Translational Sciences (NCATS), 2010)
# The whole screen tested about 340,000 compounds, of which fewer than 10 were called active. Inconclusive means that the source gave no clear call. Such entries were picked first, then a sample of the others. The call rests on the fitted dose curve; in most records, active means well fitted inhibition curve with a large enough effect in the main read-out, with a control signal flat (not every such curve was filed as active); inconclusive means small, poorly fitted or top-dose-only effect, or effect the other way, or a change in a side signal; inactive means no such curve, though single readings can be large or run the other way. Potencies of inconclusive entries are doubtful fits and often do not repeat. “Side channel” marks fits to a control or component signal instead of the main read-out.
# Biological target: Tumor susceptibility gene 101 protein (Homo sapiens) (UniProt Q99816)
# UniProt Q99816, sequence (Q99816 whole entry, looked up): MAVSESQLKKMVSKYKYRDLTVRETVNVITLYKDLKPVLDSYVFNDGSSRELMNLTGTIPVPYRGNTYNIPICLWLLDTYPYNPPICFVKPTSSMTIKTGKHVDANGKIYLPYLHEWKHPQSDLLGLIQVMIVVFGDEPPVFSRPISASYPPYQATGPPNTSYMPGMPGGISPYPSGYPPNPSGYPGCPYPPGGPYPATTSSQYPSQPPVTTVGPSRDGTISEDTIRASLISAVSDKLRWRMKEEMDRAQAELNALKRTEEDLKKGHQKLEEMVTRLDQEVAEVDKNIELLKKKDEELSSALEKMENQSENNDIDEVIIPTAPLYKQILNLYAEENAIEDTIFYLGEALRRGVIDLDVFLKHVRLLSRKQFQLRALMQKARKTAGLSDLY
# Assay: qHTS Assay for Iinhibitors of HIV-1 Budding by Blocking the Interaction of PTAP/TSG101
# Conditions: Fluorescence polarization, FITC-PTAP peptide / Tsg101 binding; series mostly up to 115 µM
# Procedure, shortened: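 Fluorescence polarization binding of Tsg101 binding domain (10 uM final) to FITC-labeled PTAP peptide (50 nM final) in HEPES pH 7.5 buffer with NaCl, Tween 20, EDTA, TCEP. Compounds added before peptide; binding 20 min at RT.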
# Potency means the concentration at half of the fitted maximal effect; tags describe the fitted curve by direction and shape or compound fluorescence and quenching.
row,SMILES,Potency
1,Cn1cccc1/C=C1/SC(=S)N(CC(=O)O)C1=O,"inconclusive: 56.2 µM [fluorescent, side channel, partial curve, poor fit]"
2,COc1cc(C(=O)Nc2cccc(-c3cn4cccnc4n3)c2)cc(OC)c1OC,inactive
3,CC(=O)c1ccc(S(=O)(=O)N2CCCC(N(C)CCc3ccccc3)C2)cc1 (stereo not given),inactive
4,O=C(CSc1nc2cc(Cl)ccc2s1)c1cc2ccccc2o1,"inconclusive: 50.1 µM [fluorescent, side channel, partial curve, poor fit]"
5,O=c1oc(/C=C/c2ccccc2)nc2sc3c(c12)CCC3,"inconclusive: 89.1 µM [fluorescent, side channel, single point]"
6,Cc1nn(C)c(C)c1/C=C/C(=O)c1ccc(Cl)cc1Cl,inactive
7,CCOC(=O)c1cc2c(=Cc3ccc(N(C)C)cc3)c3ccccc3n2[n+]1C,"inconclusive: 56.2 µM [quencher, side channel, partial curve, poor fit]"
8,N#CC(C(=O)OC1CCCCC1)c1nc2ccccc2nc1N1CCOCC1 (stereo not given),"inconclusive: 50.1 µM [falling, partial curve, poor fit]"
9,CCOCCCn1c(=N)c(S(=O)(=O)c2ccc(C)cc2)cc2c(=O)n3cc(C)ccc3nc21,"inconclusive: 79.4 µM [fluorescent, side channel, partial curve, poor fit]"
10,CCN(CC)c1ccc(/C=C(/C#N)C(=O)NCc2ccccc2)o1,"inconclusive: 50.1 µM [fluorescent, side channel, partial curve, poor fit]"
11,O=C1C(Cc2ccccc2)SC(=Nc2ccccc2)N1c1ccccc1 (stereo not given),"inconclusive: 89.1 µM [quencher, single point]"
12,CCOC(=O)c1cc2n(c1/N=C/N(C)C)-c1ccccc1C2=O,"inconclusive: 56.2 µM [fluorescent, side channel, partial curve, poor fit]"
13,O=C1CCC/C(=N/NC(=O)c2sc3ccccc3c2Cl)C1,"inconclusive: 39.8 µM [fluorescent, side channel, partial curve]"
14,COCCCNC(=O)c1cccn2c(=O)c3cc4ccccc4cc3nc12,"inconclusive: 79.4 µM [falling, partial curve, poor fit]"
15,C=C1CCN(c2ccc(C(=O)O)cc2[N+](=O)[O-])CC1,"inconclusive: 20 µM [falling, single point]"
16,Cc1ccc(NC(=O)c2ccc(NCCc3ccccc3)c([N+](=O)[O-])c2)cc1F,"inconclusive: 39.8 µM [fluorescent, side channel, partial curve]"
17,CC1(C)CCN2CCC(C)(C)c3c(O)ccc1c32,"inconclusive: 31.6 µM [fluorescent, side channel, partial curve, poor fit]"
18,CC(C)(C)c1cc(CN2CCCC(O)C2)c(O)c(C(C)(C)C)c1 (stereo not given),"inconclusive: 39.8 µM [quencher, side channel, partial curve, poor fit]"

row,SMILES,Potency
1,CN(c1ncnc(N)c1[N+](=O)[O-])C1CCS(=O)(=O)C1 (stereo not given),inactive
2,N#CC(CC(=O)c1ccc(F)cc1)c1ccc2c(c1)OCO2 (stereo not given),inactive
3,CCN1C(=O)/C(=C/C=C2\N(CC)c3cc(S(=O)(=O)N(C)C)ccc3N2c2ccccc2)SC1=S,"inconclusive: 3.55 µM [fluorescent, side channel, full curve, poor fit]"
4,CC(O)CNc1nc2c(c(=O)n(Cc3ccc(Cl)cc3)c(=O)n2C)n1C (stereo not given),"inconclusive: 79.4 µM [fluorescent, side channel, partial curve]"
5,Cc1ccc(/C=C2/NC(=O)N(Cc3ccccc3F)C2=O)s1,"inconclusive: 56.2 µM [fluorescent, side channel, partial curve, poor fit]"
6,CNC(=O)c1c(NC(=O)c2ccc(S(=O)(=O)N3CCCc4ccccc43)cc2)sc2c1CCN(C)C2,"inconclusive: 44.7 µM [fluorescent, side channel, partial curve, poor fit]"
7,Cc1ccccc1NC(=O)CN1C(=O)S/C(=C\c2ccc(-c3cc(C(=O)O)ccc3C)o2)C1=O,"inconclusive: 79.4 µM [fluorescent, side channel, partial curve, poor fit]"
8,O=C(Nc1ccc2oc(-c3ccncc3)nc2c1)c1ccc2c(c1)OCCO2,"inconclusive: 79.4 µM [fluorescent, partial curve, poor fit]"
9,COc1ccc2[nH]cc(/C=C/c3cc[n+](C)cc3)c2c1,"inconclusive: 63.1 µM [fluorescent, side channel, partial curve, poor fit]"
10,O=C(CNC(=O)c1cc(=O)[nH]c2ccc(S(=O)(=O)N3CCOCC3)cc12)Nc1ccc(F)c(F)c1,"inconclusive: 89.1 µM [fluorescent, side channel, partial curve, poor fit]"
11,CC(C)n1c(O)c(N=Nc2ccc(Cl)nn2)c2ccccc21,"inconclusive: 39.8 µM [fluorescent, side channel, partial curve, poor fit]"
12,CC(C)(C)c1ccc(C2C3=C(CCCC3=O)NC3=C2C(=O)c2ccccc23)cc1 (stereo not given),"inconclusive: 100 µM [falling, single point]"
13,CCN1C(=O)/C(=C2/Sc3ccccc3N2CC)S/C1=N\c1ncn[nH]1,"inconclusive: 56.2 µM [fluorescent, side channel, partial curve, poor fit]"
14,CN1C(=O)c2cccc3c(N)ccc(c23)C1=O,"inconclusive: 44.7 µM [fluorescent, side channel, partial curve, poor fit]"
15,CCC(=O)Nc1cc2c(cc1C(=O)CC)OCCO2,inactive
16,O=S(=O)(Nc1ccccc1)c1ccc(Oc2ncc(C(F)(F)F)cc2Cl)cc1,"inconclusive: 39.8 µM [quencher, side channel, partial curve, poor fit]"
17,Cc1ccc(OCCn2cc(/C=N/NC(=O)c3ccncc3)c3ccccc32)cc1,"inconclusive: 39.8 µM [fluorescent, side channel, partial curve, poor fit]"
